Experimental data reported in the supplement of paper PMC11417369.
Some of the results follow.

The sequences below were run on PfHDP1 homeodomain (GST-tagged) (assay: gcPBM binding intensity (ln(normalized median fluorescence intensity)); higher = stronger DNA binding).
Summary of the method: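 Alexa488 anti-GST antibody, scanned at 488 nm, detected GST-tagged P. falciparum DNA-binding domains that had been expressed in E. coli and incubated for 1 h on an Agilent 4 × 180k array. The array carried primer-extended double-stranded 36-bp intergenic genomic probes and negative controls. Binding intensity is the highest Masliner-normalised natural-log median intensity across replicate spots of either orientation of each probe.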

Row | Sequence | gcPBM binding intensity (ln)
1 | ATTTTAAAAAGGATAGTGCAAATGTTAAAATAGGAC | 9.91
2 | AAATAATACAAGGGCTGTACATAAAAAGGAGTATAT [XGTACX_site839] | 7.15
3 | GGAAAACACAAAAACTGTACATTTATTCAACATATA [XGTACX_site5831] | 6.53
4 | TATATACATATATACACACACATATATATATATATA [CACACA_site2805] | 9.28
5 | TACAAAAAAATAAATAATAAAAAAAAATATATATAA [XGTACX_negctrl_site344] | 6.32
6 | CAGGTGCACTATATTACACACGCTTCTTTTTTTTTA [CACACA_site2069] | 11
7 | TTGATATTATTGTATAAACATAATAGAGATAAAGAG [TGCATGCA_negctrl_site455] | 7.08
8 | AACATGTTAACTAAATGTACACACCTATGTTGATGT [XGTACX_site3777] | 6.34
9 | TGAAGGATATATTCCGTGCACATATAAATATATACA | 9.45
10 | AATAAATGGAATGTCACACATATATATATATATATA [CACACA_site4869] | 9.4
11 | ATTATTTAAAAAAAATGTACATAATAAATATGAACG [XGTACX_site4010] | 6.2
12 | TAAATTAAAAAACACACACACAAAAAAAAAAAAAAA [CACACA_site2263] | 6.02
13 | AAAAAAAAGAAAGAAAGTACAAATTATAAAATGAAC [XGTACX_site860] | 6.62
14 | AGTGTATGTATATAAACACACATACATATTTATAAC [CACACA_site6777] | 6.35
15 | ATTTCTAAATGTTGGTGTACGTTTTTTTATAACCTT [XGTACX_site1752] | 6.78
16 | TTATGTATTCATTTTTTTTAAGCACCCCAAAATGAT [CACACA_negctrl_site1344] | 6.78
17 | ATAATATATATATAAACACACAAAAAAAATTATATA [CACACA_site1534] | 6.69
18 | TATTTATTAAAACACACACACACACCCACAAAATAA [CACACA_site241] | 7.2
19 | ATTTTTTTTTATGATACACACTTGGATAATTAAAAC [CACACA_site4473] | 6.49
20 | TTATTCATTTTTATTTGTACATAATTATATGAAATT [XGTACX_site6389] | 6.53
21 | TTTTATATTTTATGCACACTTATAAGAAATATGTAC [CACACA_site3040] | 10.6
22 | CAAAATGTTTCTCATTGTACACAAAATAAATGTCCT [XGTACX_site6798] | 6.33

Row | Sequence | gcPBM binding intensity (ln)
23 | TAATGAATTTAAATTTTAAAATTAATAAAAAAAATA [TGCATGCA_negctrl_site15] | 6.38
24 | ATTAGTAAATTTATATGTACACATTGTTATTTTATA [XGTACX_site1177] | 6.66
25 | ACATTTACAAGGAAAGTGCATATAAGAAAAATAAAA [GTGCAC_site9587] | 8.79
26 | ATACATATGTATATTTGTACATATTAGACAATCTTA [XGTACX_site6706] | 6.3
27 | CCACATGATATGATTACACACATATATATATTTACA [CACACA_site164] | 6.77
28 | ATTCTATTATAATACACACCCAAATATTAAAAAGAT [CACACA_site2960] | 7.79
29 | GATGTTGCAAAATTCTGTACATATAAATGTATACAT [XGTACX_site5009] | 9.15
30 | TATTATATATATATATGTACATATATATGCTAAAAA [XGTACX_site5297] | 6.67
31 | TGTGTAGGGGATATTCTACTTTAAAAATAAATATAT [CACACA_negctrl_site207] | 6.71
32 | TATAAAAGATTGGAATGTACATAAGAAAAAAATATA [XGTACX_site5028] | 6.94
33 | GGCCCAACTTCTTCTGACGAAAACGTAAATTGTGTG [XGTACX_negctrl_site533] | 6.58
34 | AATCATATTAGTATGGTGCAACATATATAAATATAT | 11
35 | TTCAAGATTTATTATACACACATATTAATATTTATA [CACACA_site6413] | 6.93
36 | GTAACATTTTAAATATATACATATAATGTATTTATA [GTGCAC_negctrl_site344] | 6.25
37 | TGTTGTATCAATTTTTGTACATAACACATATGTATA [XGTACX_site3666] | 6.18
38 | ATTAAACCGTGGGAGCACACACACACACACACACAT [TGCATGCA_negctrl_site72] | 7.17
39 | ATATATATATTATGGGGTACAAACATCAAAAGATTT [XGTACX_site3944] | 7.96
40 | ATTAATTAAAAGGGAACACATAGAAATTATAAAACA [GTGCAC_negctrl_site420] | 7.01
41 | ACACAAGCACACAAATGTACATATATATATATATAT [XGTACX_site5146] | 9.4
42 | GGAAAAAAAAATAAATGTACGAATTAACATATCAAA [XGTACX_site5653] | 6.3
43 | ACACATATATTAAATGTGCACTGAAATATGCATATA [GTGCAC_site9936] | 9.68
44 | ACTTGTAAGAGACACACACACACACGGATATAAATA [CACACA_site6517] | 6.79

Row | Sequence | gcPBM binding intensity (ln)
45 | TTATTTTCCCTTTGTGCATGCAGTTTACTTTTTGTG [TGCATGCA_site993] | 8.61
46 | ATATATGTATATTTATGTACGTATTCCTGTATAGTC [XGTACX_site5763] | 6.51
47 | CAAAATAAAAATAACACACACATTTATTTATATACA [CACACA_site6679] | 6.62
48 | AATATTACAATTTGGTGTACAGGTGCACATGCCTCA [XGTACX_site1730] | 9.16
49 | TAGCTTATAAGATATGCACACACAACACTTACAAAA [CACACA_site8174] | 9.5
50 | TCTACAATTTTAATTACACACTATAAAAAAGAAAGA [CACACA_site5624] | 6.65
51 | ATAATGAAAACAAGCACACATACATAAAATAAAATA [CACACA_site3257] | 6.84
52 | ATAAATTTTTAAACAGCACACATAAATATAATATAT [CACACA_site8691] | 6.85
53 | TTTTGTTATTATAAATAGTAACATTTGTGAATATAT [TGCATGCA_negctrl_site132] | 6.42
54 | AAGACATTTTTTTGTTGTACGTCTTCATTTATTGTA [XGTACX_site2890] | 6.58
55 | TTTAAAATTATAAGGATTAAAAAAAAAAAAAATAAA [CACACA_negctrl_site114] | 6.19
56 | AACAAATAAAAAAAAATAAAAATAAAAATAAAAAAA [XGTACX_negctrl_site451] | 6.36
57 | AAGAATTATATTAATAGTACATATATATTAATTTAT [XGTACX_site5713] | 6.25
58 | TTATTTATGAAGTATACACACAATATAGATTTATAT [CACACA_site6703] | 6.57
59 | CTGTAAAAAATATAAACACACATAGAGATATATAAA [CACACA_site6292] | 6.53
60 | TTTAATGTTACTCCTTGTACACAAAATAGTGTTATA [XGTACX_site8416] | 6.6
61 | TAAGTATATTTTATATGTACTTATATATTTAATTTT [XGTACX_site4615] | 5.62
62 | TATTAATATGGTAATACACACTAATATACTTTTGTT [CACACA_site6860] | 6.59
63 | ATATATATATATATATGTACGTATTCATAAACAACA [XGTACX_site4282] | 9.27
64 | TTAATATATTATCTGGTGCATAAACACGTTATACCT | 10.6
65 | CAGTATTACATGAGGACACACACAAAAAAAATATAT [CACACA_site8156] | 6.87
66 | ATGATTTCACAAGACACACACATACAAATTTATATA [CACACA_site3909] | 6.73

Row | Sequence | gcPBM binding intensity (ln)
67 | TATTTTATATTTTATGCACACTTATAAGAAATATGT [CACACA_site5647] | 9.42
68 | CAAGCTTTTTCCTTTACACACATTAGTTATTTATAT [CACACA_site6781] | 6.83
69 | ATAGGTTCCCAAAATGCACACCAATGAAATTATTTA [CACACA_site8081] | 9.34
70 | ATATTATTTTAAAGTACACACATATATTAAGATATA [CACACA_site5306] | 6.6
71 | CATACAGATATATATACACACATACAGATAAATACA [CACACA_site4592] | 6.87
72 | GGTAATTTTTTTTAAATACACACTGAAATGTGAATT [CACACA_site564] | 6.61
73 | AACATACATAAACACACACACACACCCACAGAGACA [CACACA_site4430] | 6.97
74 | CTTATAAAAAAAAAAACATGCAACAGTAAAGAACAA [TGCATGCA_site892] | 7.33
75 | AAAAAAATAAGTATTGAACAATTAAGGAAAAACATG [GTGCAC_negctrl_site464] | 6.7
76 | TTTTTTCAATTTTTTTTAAATAAACCACAAAAAAAA [CACACA_negctrl_site1701] | 5.89
77 | AAACTATAATATATTACACACATATATTTTATAAGT [CACACA_site6460] | 6.47
78 | AAATAAAAAAAGAAACGTACATATATTGGTTTCGTC [XGTACX_site3510] | 6.24
79 | TAATGTAAAATTTAGAGTACATAAAAAATTGGATGA [XGTACX_site7225] | 6.68
80 | AATTGAATTTTAAAAGAAAAAAAAAAAAAAAAATAA [XGTACX_negctrl_site195] | 5.92
81 | GGAATAGTAATATATACACACAAATACAGATATATA [CACACA_site4213] | 6.73
82 | TGGAGGTCAGTTCACAGTACCCAGAAACTCTACGGA [XGTACX_site4927] | 5.97
83 | AATAATTGAAAAACACAAAAATGATTTTCCATAAAT [CACACA_negctrl_site1555] | 5.77
84 | GTAAAAAAATAGCACACACACAAAAACACGCACAAA [CACACA_site6723] | 8.31
85 | GGGACAGGACGAAAAAATAAATAAATAAATAAAAAA [CACACA_negctrl_site155] | 6.46
86 | ACAAGATCTAGATACACACACATATCTCTCAATCTA [CACACA_site6453] | 7.07
87 | AATAAATAAATATATACACACATATCTGTCTACATA [CACACA_site5708] | 6.5
88 | CTTGTCATTGGGCACACACACATGTATAGGTTATTA [CACACA_site3058] | 6.49
